Data: PubChem BioAssay AID463173 (ICCB-Longwood Screening Facility, Harvard Medical School, 2010)
Among all 52,000 compounds or so, about 1,700 (3.3%) were called active. Cut-off read from the data, not from the text of the source: active = survival mostly below about 52% (no sharp cut-off); inactive = mostly above about 56%. This is one part of the list.

These compounds were tested on Wild type (assay: growth inhibition of S. aureus wild type versus tarO mutant, primary screen, teichoic acid synthesis inhibitors, RN4220, OD600 (AID 463173)). Settings: S. aureus RN4220 wild type/DeltatarO growth, OD600, 18 h, hits give low values, screened at 18.75 µg/mL (by protocol).
For `CC1CCN(c2nc3ccc(C(=O)NCCc4ccc(S(N)(=O)=O)cc4)cc3s2)CC1`, the survival was inactive: 80%.
`O=C(Cn1c(=O)oc2cc(S(=O)(=O)N3CCCCC3)ccc21)NCc1ccc(F)cc1` was tested, and the survival was inactive: 133%.
With `COc1ccc(CC(=O)NC2CC(=O)N(c3ccc(C)c(C)c3)C2)cc1OC` (centres undefined) the survival was inactive: 45%.
`Cc1ccc(CNC(=O)CN2C(=O)C3(SCC(=O)N3c3ccc(F)c(F)c3)c3ccccc32)cc1` (centres undefined) was tested, and the survival was inactive: 70%.
In the case of `COc1ccc(-c2nc(Cn3c(SCc4ccccc4F)nc4cccnc43)c(C)o2)cc1`, the survival is reported as inactive: 68%.
`Cc1cccc2sc(N(Cc3cccnc3)C(=O)C3COc4ccccc4O3)nc12` (centres undefined) was tested, and the survival was inactive: 76%.
For `COc1ccc(OC)c(NC(=O)C2C3C=CC(C3)C2C(=O)NCc2cccnc2)c1` (centres undefined), the survival was inactive: 117%.
For `CC1=C(C#N)c2nc(N)c(C#N)c(C)c2/C1=C\c1cccnc1`, the survival was inactive: 83%.
`O=C(CN1C(=O)CCc2cc(S(=O)(=O)N3CCCCC3)ccc21)NCc1ccc(Cl)cc1` was tested, and the survival was inactive: 73%.
`COC(=O)c1c(NC(=O)c2ccc(S(=O)(=O)N(C)C3CCCCC3)cc2)sc2c1CCN(C)C2` was tested, and the survival was inactive: 73%.
With `CCOC(=O)C(Cc1ccccc1)NC(=O)CCc1c(C)nc2c(c(C)nn2-c2ccc(C)c(C)c2)c1C` (centres undefined) the survival was inactive: 94%.
In the case of `COC(=O)c1ccccc1NC(=O)C1CCCN(c2nnc(C)c3c(C)n(-c4ccccc4)nc23)C1` (centres undefined), the survival is reported as inactive: 85%.
For `COc1ccc(OCC(=O)NCC(c2ccc(OC)cc2)N2CCOCC2)cc1` (centres undefined), the survival was inactive: 108%.
For `Cc1ccc(C)c(N2CCN(C(=O)CS(=O)(=O)c3cccc4nsnc34)CC2)c1`, the survival was inactive: 120%.
For `Cc1cccc(N2CCN(C(=O)CN3C(=O)COc4ccc(S(=O)(=O)N5CCCC5)cc43)CC2C)c1` (centres undefined), the survival was inactive: 95%.
In the case of `Cc1cc(NC(=O)C(C)(C)C)cc(-c2nc3ncccc3o2)c1O`, the survival is reported as inactive: 79%.
In the case of `Cc1cc(NC(=O)c2cnc3c(-c4ccccc4)c(C)nn3c2C)ccc1Br`, the survival is reported as inactive: 73%.
In the case of `O=C(Cn1c(-c2cccs2)cc2cc(F)ccc21)NCCCN1CCN(c2ccc(F)cc2)CC1`, the survival is reported as inactive: 68%.
`Cc1ccc(/C=C/c2onc(C)c2S(=O)(=O)N2CCC(C(=O)NCc3ccc(OC(C)C)cc3)CC2)cc1` was tested, and the survival was inactive: 97%.
In the case of `CN(C)c1ccc2c(c1)S(=O)(=O)c1cc(N(C)C)ccc1C2=O`, the survival is reported as inactive: 110%.
For `CC1Cc2ccccc2N1C(=O)c1cc2sccc2n1Cc1ccc(F)cc1` (centres undefined), the survival was inactive: 119%.
For `CCn1c(SCC(=O)c2ccccc2)nnc1-c1cccc(Cl)c1`, the survival was inactive: 33%.
With `CCc1c(CN2CCN(c3ccccc3F)CC2)csc1C` the survival was inactive: 52%.
With `Cc1ccc(S(=O)(=O)NCCSc2nnc3nc(C)cc(C)n23)cc1` the survival was inactive: 99%.
`Cc1ccc(CNC(=O)c2ccccc2NC(=O)c2nsc3ccccc23)cc1` was tested, and the survival was inactive: 75%.
For `COc1ccc(-c2c(C)c3ccc(O)c(CN4CCCC4)c3oc2=O)cc1`, the survival was inactive: 81%.
In the case of `COc1cccc(CNCCSc2nnnn2-c2ccccc2)c1OC`, the survival is reported as inactive: 85%.
`COCCCNC(=O)NC(CCC(C)C)c1c(-n2cccc2)sc2c1CCN(C)C2` (centres undefined) was tested, and the survival was inactive: 75%.
In the case of `Cc1c(Cl)cccc1NC(=O)CCCn1nc(C)c2sc3ccccc3c2c1=O`, the survival is reported as inactive: 82%.
`Cc1nnc(C)n1-c1ccc(C(=O)Nc2cccc(Br)c2)cc1` was tested, and the survival was inactive: 99%.
For `Cc1cccc(Cn2cc3c(=O)n(CC(=O)Nc4c(C)cccc4C)nc-3c3cc(F)ccc32)c1`, the survival was inactive: 71%.
In the case of `CCC1CCCCN1S(=O)(=O)c1ccc(NC(=O)c2cc(=O)c3c(C)cc(C)cc3o2)cc1` (centres undefined), the survival is reported as inactive: 78%.
For `COc1cccc(N2CCN(c3c4c(nc5nncn35)CCC4)CC2)c1`, the survival was inactive: 81%.
For `COC(=O)c1cc2oc3ccccc3c2n1Cc1nc(-c2ccccc2Cl)oc1C`, the survival was inactive: 87%.
For `CC(C)Sc1nc2sc3c(c2c(=O)n1Cc1ccccc1)CCCC3`, the survival was active: 5%.
With `CCOc1ccccc1N1CCN(C(=O)C2CCN(Cc3ccc(OC)cc3)CC2)CC1` the survival was inactive: 106%.
For `CC(C)NC(=O)CSc1nnc(Cc2ccccc2)n1C`, the survival was inactive: 101%.
With `CC1(C)CC(=O)c2cc(-c3nc(-c4ccccc4)cs3)c(=O)[nH]c2C1` the survival was inactive: 67%.
In the case of `Cc1ccc(NC(=O)C2CCN(S(=O)(=O)c3c(C)noc3C)CC2)cc1`, the survival is reported as inactive: 95%.
In the case of `O=C(NCCN1CCN(c2ccccc2)CC1)Nc1cccc(Br)c1`, the survival is reported as inactive: 74%.
In the case of `O=C(OCc1ccccc1)N1CCOCCN(C(=O)OCc2ccccc2)CCOCC1`, the survival is reported as inactive: 102%.
With `CCOc1ccc(NC(=O)CSc2nc3ccsc3c(=O)n2C(C)CC)cc1` (centres undefined) the survival was inactive: 78%.
In the case of `COc1ccc(Nc2nc(-c3cccc(Cl)c3)c3c(n2)-c2ccccc2OC3)cc1`, the survival is reported as inactive: 86%.
`CCOc1ccccc1CNC(=O)Cc1ccc(NC(=O)N2CCCCc3ccccc32)cc1` was tested, and the survival was inactive: 128%.
With `Cc1ccc(C#N)c(SCC(=O)O)n1` the survival was inactive: 113%.
For `CCOc1ccc(CCNC(=O)CCc2c(C)nc3c(c(C)nn3-c3ccc(C)c(C)c3)c2C)cc1`, the survival was inactive: 77%.
In the case of `CCCCNS(=O)(=O)c1ccc2nc(-c3cccnc3)cc(C(=O)NCCCOC(C)C)c2c1`, the survival is reported as inactive: 63%.
`Cc1ccc2nc(NCc3ccccc3)c3nnnn3c2c1` was tested, and the survival was inactive: 159%.
With `Cc1cccc2c1-c1sc(C(=O)N3CCN(c4ccccc4)CC3)cc1CO2` the survival was inactive: 65%.
`COc1ccc(-c2noc(N3CCC(C(=O)N4CCN(c5ccccc5OC)CC4)CC3)n2)cc1` was tested, and the survival was inactive: 55%.
With `CCOC(=O)c1cnc2c(C)c(Cl)ccc2c1NCCc1ccc(OC)c(OC)c1` the survival was active: 4%.
In the case of `CCOc1cccc(Nc2nn(-c3ccc(OC(F)(F)F)cc3)nc2C(C)=O)c1`, the survival is reported as inactive: 94%.
With `CCOC(=O)c1ccc(NC(=O)C2CC(=O)NC(=Nc3ccc(C)c(C)c3)S2)cc1` (centres undefined) the survival was inactive: 46%.
For `COc1ccccc1CNC(=O)Cn1c(=O)oc2cc(S(=O)(=O)N3CCCC3)ccc21`, the survival was inactive: 122%.
`Cc1ccc(N(CC(=O)NCCc2ccccc2C)S(=O)(=O)N(C)C)cc1` was tested, and the survival was inactive: 88%.
In the case of `COc1ccccc1CNC(=O)c1cccc(N2CCCS2(=O)=O)c1`, the survival is reported as inactive: 70%.
In the case of `CCCCN(C)CCNC(=O)c1ccc(Cn2c(=O)[nH]c3cc(OC)c(OC)cc3c2=O)cc1`, the survival is reported as inactive: 70%.
In the case of `Cc1cccc(NC(=O)Nc2ccc(F)cc2)n1`, the survival is reported as inactive: 123%.
`COc1ccc(-c2noc(N(c3ccc(F)c(Cl)c3)c3nc(-c4ccc(OC)c(OC)c4)no3)n2)cc1OC` was tested, and the survival was inactive: 95%.
With `COc1cc(-c2nc(S(=O)(=O)c3ccc(Br)cc3)c(N3CCOCC3)o2)cc(OC)c1OC` the survival was inactive: 56%.
For `COc1ccc(Br)cc1C(=O)Nc1cccc2ccc(C)nc12`, the survival was inactive: 63%.
With `CCc1ccc(CNC(=O)c2ccc3c(Cl)c4c(nc3c2)CCCC4)cc1` the survival was inactive: 75%.
With `CCc1nc2nc(C)cc(Nc3cc(Cl)ccc3C)n2n1` the survival was inactive: 73%.
`Cc1cc(N2CCN(c3cccc(C)c3C)CC2)n2cnnc2n1` was tested, and the survival was inactive: 115%.
For `CCOC(=O)c1cnn(-c2ccc(C(=O)Nc3ccc(OC(F)(F)F)cc3)cc2)c1N`, the survival was inactive: 130%.
`CC(=O)Nc1ccc(NC(=O)C2CCCN(S(=O)(=O)c3ccc4c(c3)CCCC(=O)N4)C2)cc1` (centres undefined) was tested, and the survival was inactive: 72%.
In the case of `O=C(CCCCCN1C(=O)c2ccccc2C1=O)Nc1nccs1`, the survival is reported as inactive: 112%.
With `COCCn1nnnc1C(c1ccc2ncccc2c1)N1CCc2ccccc21` (centres undefined) the survival was inactive: 110%.
In the case of `COc1ccc(Cl)cc1NC(=O)Cn1ncc2c3ccccc3n(C)c2c1=O`, the survival is reported as inactive: 119%.
`CCCN(Cc1cccs1)C(=O)Nc1cc(Cl)ccc1C` was tested, and the survival was inactive: 81%.
With `Cc1nn(CC(=O)NCc2ccc(F)cc2)c2ccccc12` the survival was inactive: 84%.
In the case of `Cc1ccc2[nH]c3c(=O)n(CC(=O)NCc4ccco4)ncc3c2c1`, the survival is reported as inactive: 63%.
In the case of `Cc1ccc(C)c(N2CCN(C(=O)CCC(=O)Nc3ccc4nc(N5CCCCC5)cc(C)c4c3)CC2)c1`, the survival is reported as inactive: 63%.
For `Cc1ccc(OCCSc2nnc(-c3cccs3)o2)cc1Cl`, the survival was inactive: 72%.
For `O=C(NCc1ccc(Cl)cc1)c1ccc2c(Cl)c3c(nc2c1)CCCC3`, the survival was inactive: 80%.
In the case of `CCOC(=O)c1cccc(NC(=O)CCCn2nc(C)c3c(C)n(-c4ccccc4)nc3c2=O)c1`, the survival is reported as inactive: 49%.
With `CC(=O)Nc1ccc(NC(=O)C2CCN(c3c(NC(C)=O)c(C)nn3-c3ccccc3)CC2)cc1` the survival was inactive: 63%.
In the case of `CCOC(=O)c1ccc2nc(C)cc(Nc3cccc(C(=O)O)c3)c2c1`, the survival is reported as inactive: 136%.
`CCOC(=O)c1c(C)n(-c2ccccc2)c2ccc(OC(=O)c3ccccc3NC(=O)C(C)C)cc12` was tested, and the survival was inactive: 58%.
For `COc1ccc(Cl)cc1-n1nnc(-c2nc(-c3ccccc3)no2)c1C`, the survival was inactive: 69%.
In the case of `COc1ccc(-c2nc3cc(C(C)C)ccc3o2)cc1NC(=O)c1ccccc1[N+](=O)[O-]`, the survival is reported as inactive: 76%.
For `COc1ccc(NC(=O)C2COc3ccccc3C2)cc1Cl` (centres undefined), the survival was inactive: 80%.
`CCOc1ccccc1CNC(=O)CCn1c(=O)c2cccn2c2ccc(F)cc21` was tested, and the survival was inactive: 75%.
With `COc1ccc2c(c1)c(=O)c(C(=O)c1ccc(C)c(C)c1)cn2CC(=O)Nc1ccc2c(c1)OCCO2` the survival was inactive: 82%.
In the case of `Cc1ccc(CNc2nc(-c3ccco3)nn2S(C)(=O)=O)cc1`, the survival is reported as inactive: 109%.
In the case of `Cc1ccc(Cn2c(CN3CCC(C(=O)NCc4ccccc4C)CC3)cc3ccccc32)cc1`, the survival is reported as inactive: 71%.
In the case of `CC(C)Cc1ccc(S(=O)(=O)N2CCC(c3ccncc3)CC2)cc1`, the survival is reported as inactive: 134%.
With `COc1ccccc1N1CCN(C(=O)Cn2c(=O)n3nc(-c4ccc(C)cc4)nc3c3ccccc32)CC1` the survival was inactive: 88%.
In the case of `COc1ccc(NC(=O)c2cccc(N3CCCS3(=O)=O)c2)cc1OC`, the survival is reported as inactive: 73%.
